Results published in PubChem BioAssay AID504706 (National Center for Advancing Translational Sciences (NCATS), 2011).
The campaign covered roughly 320,000 compounds. About 200 (0.062%) were called active. This list was built around the results that the source calls inconclusive (neither active nor inactive); the mix of calls is not that of the screen. The call rests on the fitted dose curve; in most records, active means well fitted activation curve with a large enough effect; inconclusive means small, poorly fitted or top-dose-only effect; inactive means no such curve, though single readings can be large or run the other way. Potencies of inconclusive entries are left out as doubtful fits.

Assay: qHTS assay for re-activators of p53 using a Luc reporter; further: nearly all actives have a fitted effect of over 45% in size; on activity change, positive = activation: % of control where 0% means no effect
Conditions: H1299 p53-A138V BP100-luciferase reporter, luminescence, 24 h; series mostly up to 92.2 µM; activity change, positive = activation: at the top concentration
Outline: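 H1299 (p53-null), stable ts p53-A138V + BP100-Luc; 1000 cells/well, Opti-MEM/10% FBS; cpd 4 pt, 1:5; 24 h, 37 deg C, 5% CO2; detection reagent 10 min RT; luminescence.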
Potency means the concentration at half of the fitted maximal effect; tags describe the fitted curve by direction and shape.

SMILES | Potency | activity change, positive = activation
COc1ccc(OCc2cc(C(=O)NC(C)Cc3cnccn3)no2)c(Cl)c1 (stereo unspecified) | inconclusive [activator, partial curve, poor fit] | –
Oc1ccc(N=Nc2ccc(Br)cc2)c(O)c1 | inconclusive [activator, full curve, poor fit] | –
CN(CC(=O)Nc1ccc(Cl)cc1F)C1CCS(=O)(=O)C1 (stereo unspecified) | – | inactive: -6.77%
C/C(=N/N=C(/C)c1cccs1)c1cccs1 | inconclusive [activator, partial curve, poor fit] | –
CCC(C)(C)C1CCc2c(sc(NC(=O)c3cccs3)c2C(N)=O)C1 (stereo unspecified) | – | inactive: -0.273%
CCCN(C(=O)CSc1ccccc1C(=O)O)C1CCS(=O)(=O)C1 (stereo unspecified) | – | inactive: -2.2%
COc1ccc(C(=O)NCCn2ccc3ccccc32)c(OC)c1 | – | inactive: 3.15%
O=C(NCc1ccccc1CN1CCCCC1)c1ccccc1N1CCCC1=O | inconclusive [activator, full curve, poor fit] | –
O=C(CSc1nnc2ccccn12)NCc1cccs1 | inconclusive [activator, partial curve, poor fit] | –
O=C(OCc1cccc(C(F)(F)F)c1)c1cc(S(=O)(=O)N2CCOCC2)ccc1F | – | inactive: -2.96%
C=CCn1c(=N)n(CC(=O)c2ccc(Br)cc2)c2ccccc21 | inconclusive [activator, single point] | –
OC1(c2cccc(C(F)(F)F)c2)CCN(CCN2CCCCC2)CC1 | inconclusive [activator, partial curve, poor fit] | –
CC(C)CC(=O)Nc1ccc2oc(-c3cccnc3)nc2c1 | inconclusive [activator, partial curve, poor fit] | –
COc1ccc(-n2c(COc3ccc(C)cc3)nnc2SCC(=O)O)cc1 | inconclusive [activator, single point] | –
COc1ccc(CN(C(=O)c2cc(=O)c3ccccc3o2)C2CCS(=O)(=O)C2)cc1 (stereo unspecified) | – | inactive: -5.06%
CN1/C(=C\C(=O)C(F)F)C(C)(C)c2ccccc21 | inconclusive [activator, single point] | –
Nc1cc(-c2ccc(Cl)cc2)nn1-c1ccccc1 | – | inactive: 11%
C=CCn1c(-c2cccs2)nc2nc3ccccc3nc21 | inconclusive [activator, partial curve, poor fit] | –
COc1ccc(S(=O)(=O)N2CCSCC2)cc1 | inconclusive [activator, single point] | –
CC(=O)Nc1ccc(/C=C/c2ccc3cccc([N+](=O)[O-])c3n2)cc1 | – | inactive: 4.56%
O=C(CSc1ccc(Cl)cc1)Nc1cccc(-c2nnc(-c3ccco3)o2)c1 | inconclusive [activator, full curve, poor fit] | –
CCCCCn1cnc2c(sc3nc4c(cc32)CSC(C)(C)C4)c1=O | inconclusive [activator, full curve, poor fit] | –
CN(C)C(=O)CCc1nc(-c2ccc(C(C)(C)C)cc2)no1 | – | inactive: 15.9%

SMILES | Potency | activity change, positive = activation
Cc1ccc(S(=O)(=O)Nc2nc(CN3CCOCC3)nc3sc(C)c(C)c23)cc1 | inconclusive [activator, single point] | –
COC(=O)CC(NC(=S)NC(=O)c1ccccc1)c1ccc(Br)cc1 (stereo unspecified) | – | inactive: -6.91%
O=C(CSc1nc2ccccc2s1)Nc1cc(S(=O)(=O)N2CCOCC2)ccc1Cl | – | inactive: -2.24%
CC(C)CCNC(=O)NC(=O)COc1ccccc1C#N | inconclusive [activator, single point] | –
Cc1ccccc1C(=O)Nc1ccc(Br)c(C)n1 | inconclusive [activator, partial curve, poor fit] | –
COc1cc(OC)cc(C(=O)NC(C(=O)NNC(=O)c2ccc(C)cc2)C(C)C)c1 (stereo unspecified) | inconclusive [activator, partial curve, poor fit] | –
O=C(Nc1cccc(Cl)c1)Nc1cccc(Cl)c1 | inconclusive [activator, full curve, poor fit] | –
CC(NC(=O)CSC1=NCCS1)c1ccccc1 (stereo unspecified) | inconclusive [activator, single point] | –
O=C(Nc1ccccc1C(=O)O)c1cccc(N2C(=O)c3ccccc3C2=O)c1 | – | inactive: 1.76%
CC1CCCN(C(=S)SCC(=O)c2cc(Br)cc(Br)c2O)C1 (stereo unspecified) | – | inactive: 1.08%
CC1CCc2nc(NC(=O)Cc3cccs3)sc2C1 (stereo unspecified) | inconclusive [activator, partial curve, poor fit] | –
COc1cccc(CN2C(=O)C(C)N(C(=O)c3ccccc3)c3ccccc32)c1 (stereo unspecified) | – | inactive: 1.56%
CC(=O)c1ccc(NCC2COc3ccccc3O2)c([N+](=O)[O-])c1 (stereo unspecified) | inconclusive [activator, partial curve, poor fit] | –
Cc1cc([N+](=O)[O-])ccc1NC(=O)c1csc(C)c1C | inconclusive [activator, full curve] | –
Cc1cccn2cc(CSc3ccccc3N)nc12 | inconclusive [activator, full curve, poor fit] | –
CCOc1ccccc1C(=O)Nc1c[nH]c(=O)[nH]c1=O | inconclusive [activator, single point] | –
Cc1occc1C(=O)N=Nc1c(O)n(C)c2ccccc12 | inconclusive [activator, full curve, poor fit] | –
CC1(C)CC(=O)c2c(O)cc(OCc3ccc(Br)cc3)cc2O1 | inconclusive [activator, full curve, poor fit] | –
Cc1ccc(-c2noc(CN3CCCCC3)n2)cc1 | inconclusive [activator, full curve, poor fit] | –
Cc1cc(=O)oc2cc(OCC(=O)NCc3ccco3)ccc12 | – | inactive: -5.61%
FC(F)(F)c1nnc(-c2ccccc2)nc1Sc1ccccc1 | – | inactive: -7.01%
CCCCOc1ccc(C(=O)NNC(=S)NC(=O)CC)cc1 | inconclusive [activator, single point] | –
CCCc1nc2ccc(NC(=O)c3ccco3)cc2c(=O)n1Cc1ccccc1Cl | – | inactive: -3.11%
